# Experimental data reported in PMC4336329 (PLoS ONE, 2015).
# Out of some 310,000 compounds screened, about 2,200 (0.71%) showed an effect of 50% or more. Effects have a minus sign here. The list shows a part of the results. Where a SMILES comes first, the peptide text is derived from it.
# Target: human ether-à-go-go-related gene (hERG) potassium channel (human, UniProt Q12809)
# Experiment: primary screen, population patch clamp on CHO cells stably expressing hERG
# human ether-à-go-go-related gene (hERG) potassium channel, sequence (Q12809 whole entry, looked up): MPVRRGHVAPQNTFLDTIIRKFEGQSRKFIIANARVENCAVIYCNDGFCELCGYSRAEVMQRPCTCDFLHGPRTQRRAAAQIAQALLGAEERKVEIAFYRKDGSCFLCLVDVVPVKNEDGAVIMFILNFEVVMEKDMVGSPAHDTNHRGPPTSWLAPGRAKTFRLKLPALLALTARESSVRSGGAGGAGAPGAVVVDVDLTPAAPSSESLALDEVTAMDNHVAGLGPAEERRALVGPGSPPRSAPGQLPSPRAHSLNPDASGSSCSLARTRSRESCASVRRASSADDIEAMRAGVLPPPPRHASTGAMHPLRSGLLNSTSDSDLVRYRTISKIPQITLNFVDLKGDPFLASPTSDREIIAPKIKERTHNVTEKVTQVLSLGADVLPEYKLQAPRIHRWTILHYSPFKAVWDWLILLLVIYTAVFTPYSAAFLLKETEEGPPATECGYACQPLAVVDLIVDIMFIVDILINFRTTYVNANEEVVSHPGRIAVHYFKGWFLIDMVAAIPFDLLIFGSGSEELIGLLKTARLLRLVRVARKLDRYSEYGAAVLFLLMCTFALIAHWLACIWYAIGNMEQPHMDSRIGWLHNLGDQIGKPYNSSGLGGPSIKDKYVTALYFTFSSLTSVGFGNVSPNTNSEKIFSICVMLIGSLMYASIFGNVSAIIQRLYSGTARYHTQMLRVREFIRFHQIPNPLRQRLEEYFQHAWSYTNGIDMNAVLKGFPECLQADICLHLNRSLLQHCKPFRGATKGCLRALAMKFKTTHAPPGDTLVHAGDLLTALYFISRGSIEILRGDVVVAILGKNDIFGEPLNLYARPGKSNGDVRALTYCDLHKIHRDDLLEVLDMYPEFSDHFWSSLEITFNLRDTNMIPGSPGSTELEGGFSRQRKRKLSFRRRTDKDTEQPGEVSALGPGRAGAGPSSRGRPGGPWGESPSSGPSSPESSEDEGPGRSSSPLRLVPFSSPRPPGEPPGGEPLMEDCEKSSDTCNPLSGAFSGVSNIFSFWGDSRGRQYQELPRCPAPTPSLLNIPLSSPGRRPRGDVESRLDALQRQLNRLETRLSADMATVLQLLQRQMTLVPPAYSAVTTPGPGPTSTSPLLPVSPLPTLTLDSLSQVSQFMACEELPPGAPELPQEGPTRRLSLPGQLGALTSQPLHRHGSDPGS
row,Structure (SMILES),"hERG current change (%, negative = inhibition) at 1uM"
1,COc1ccc(Sc2nc(-c3ccccn3)ncc2OC)cc1,2.96%
2,CC(C)c1ccc(COc2ccc(C(=O)N3CCOCC3)cc2)cc1,-1.08%
3,CCC(C)c1ccc(OCCn2cc(/C=N/NC(=O)CSc3nnc(C)s3)c3ccccc32)cc1 (centres unmarked),13.9%
4,Cc1cccc(-n2c(C)cc(C=C(C#N)C#N)c2C)c1,10.6%
5,Cc1cc2nccc(-c3ccc(Cl)c([N+](=O)[O-])c3)n2n1,19.4%
6,CCOC(=O)N1CCN(S(=O)(=O)c2ccc3[nH]c(=O)oc3c2)CC1,1.16%
7,O=C(C(Cc1ccccc1)NS(=O)(=O)c1cccc2cccnc12)N1CCc2ccccc21 (centres unmarked),3.6%
8,COc1ccc(-c2cc(C(F)(F)F)n3nc(C(=O)NCCN4CCOCC4)cc3n2)cc1,7.08%
9,Cc1cc(C)nc(/N=C(\N)Nc2ccc(C(C)C)cc2)n1,-3.29%
10,O=C(NCC(=O)N(c1cccnc1)C(C(=O)NC1CCCCC1)c1ccccc1F)c1ccco1 (centres unmarked),16.7%
11,Cc1cc(C)c(C)c(S(=O)(=O)Nc2ccc(C(=O)N3CCCC3)cc2)c1C,7.53%
12,COC(=O)C1=C(c2ccc(OC)c(OC)c2)C[C@@H]2CC[C@H]1N2C(=O)N1CCC(C)CC1,17.2%
13,COC(C[C@@H]1O[C@@H]1[C@H](O)COCc1ccccc1)OC,10.5%
14,Cc1ccc(C(=O)OCC(=O)N(CC(C)C)c2c(N)n(Cc3ccccc3)c(=O)[nH]c2=O)s1,16.4%
15,Cc1sc2nc(COC(=O)c3cccc(OC(F)F)c3)[nH]c(=O)c2c1C,7.7%
16,NS(=O)(=O)c1ccc(NC(=O)c2ccc(CSc3ccccc3)o2)cc1,-8.48%
17,CCOC(=O)c1cc2sccc2n1CC(=O)OC(C)C,3.06%
18,CC1=N/C(=C\c2ccc([N+](=O)[O-])cc2)C(=O)N1c1cc(Cl)ccc1C,-1.29%
19,COc1ccccc1NC(=O)NC(=O)c1ccccc1,15.9%
20,COC(=O)C(CC(C)C)NC(=O)C(N)Cc1ccccc1.Cl (stereo not drawn) (H-Phe-Leu-OMe; configuration not given here),4.33%
21,Cc1nc(N)sc1C(=O)N/N=C/c1ccco1,19.5%
22,Cc1cc(C(C)(C)C)ccc1OCCOCCN1CCCC1,-0.816%

row,Structure (SMILES),"hERG current change (%, negative = inhibition) at 1uM"
1,CCn1ccnc1CN(C)Cc1c(C(=O)N2C[C@@H](C)O[C@@H](C)C2)nc2ccc(Cl)cn12,9.26%
2,CC(C)CN(C(=O)COC(=O)CCCc1c[nH]c2ccccc12)c1c(N)n(Cc2ccccc2)c(=O)[nH]c1=O,15.8%
3,CN1CCCN(C(=O)COc2cccc(C(F)(F)F)c2)CC1,6.46%
4,COc1ccc(CCNS(=O)(=O)c2cc3c4c(c2)CC(=O)N4CCC3)cc1,6.26%
5,CC(C)(C)C1CCc2[nH]c3ccccc3c(=O)c2C1 (centres unmarked),7.87%
6,O=C(Cc1ccc(Cl)cc1)NC1CC1,19.8%
7,COCCn1c(=NC(=O)CN2C(=O)CCC2=O)sc2cc(S(N)(=O)=O)ccc21,-4.74%
8,COc1cccc(/C=C/C(=O)OCC(=O)c2c[nH]c3ccccc23)c1OC,6.4%
9,CCCCOc1ccc(C(=O)N2CCC(C)CC2)cc1,4.77%
10,Cn1c(=O)c(=O)n(C)c2cc(S(=O)(=O)Nc3ccc(OC(F)(F)F)cc3)ccc21,4.01%
11,C=C(C)/C=N/NC(=S)Nc1ccc(S(=O)(=O)N2CCOCC2)cc1,4.89%
12,CCN(CCNC(=O)C1CCCN(S(=O)(=O)CC)C1)c1ccccc1 (centres unmarked),-0.0618%
13,COCCCNC(=O)Cn1cc(C(C)=O)c2ccccc21,17.6%
14,CCN(CC)S(=O)(=O)c1cccc(NC(=O)COc2ncnc3sccc23)c1,3.76%
15,Cc1cccc(NC(=O)N2C3CCCC2CC(NC(=O)C(C)(C)C)C3)c1 (centres unmarked),7.54%
16,CCCc1nnc(SCC(=O)NC2CCCC2)n1CCOC,14.3%
17,CSCc1cc(N2CCOCC2)nc(SCc2ccc(Cl)c(Cl)c2)n1,11.9%
18,CCCCC(=O)NC(=S)Nc1cccc(Cl)c1N1CCCCC1,6.67%
19,CCN(CC)C(=O)CSc1nc(N)c2c3c(sc2n1)CC(C)CC3 (centres unmarked),4.7%
20,COc1ccccc1/C=N/n1c(C)nnc1-n1nc(C)cc1C,8.73%
21,CCc1cccc2c(C(=O)C(F)(F)F)cn(CC(=O)NCC3CCCO3)c12 (centres unmarked),5.45%
22,CC(C)CNS(=O)(=O)c1ccc(NC(=O)Cn2nc(-c3ccc(F)cc3)ccc2=O)cc1,7.17%
